{
  "source": "PubChem BioAssay AID485281",
  "about": "(National Center for Advancing Translational Sciences (NCATS), 2010)",
  "note": "The whole screen tested about 350,000 compounds, of which about 260 (0.074%) were called active. Inconclusive results, whose numbers are uncertain, are shown with a selection of clear calls. The call rests on the fitted dose curve; in most records, active means well fitted inhibition curve with a large enough effect; inconclusive means small, poorly fitted or top-dose-only effect; inactive means no such curve, though single readings can be large or run the other way. A potency beside an inconclusive call is a rough fit, not a confirmed value. On the % scale 0 is the no-effect control and ±100 the full control effect; potency means the concentration at half of the fitted maximal effect; tags describe the fitted curve by direction and shape.",
  "data": [
    {"target": "Ferritin light chain (Equus caballus) (UniProt P02791)", "sequence (P02791 whole entry, looked up)": "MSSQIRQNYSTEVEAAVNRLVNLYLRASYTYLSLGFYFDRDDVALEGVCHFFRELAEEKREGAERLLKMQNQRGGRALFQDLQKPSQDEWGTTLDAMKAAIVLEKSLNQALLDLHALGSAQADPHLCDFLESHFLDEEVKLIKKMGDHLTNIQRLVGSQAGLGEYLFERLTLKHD", "assay": "qHTS Assay for Identification of Novel General Anesthetics; further: nearly all actives have a fitted effect of over 20% in size", "settings": "apoferritin/1-aminoanthracene competitive binding, fluorescence; activity change, negative = displacement: at 77.5 µM (top of the series)", "method_in_brief": "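Apoferritin-based anesthetic binding model; compound displacement of fluorescent 1-AMA measured as endpoint fluorescence after 10 minutes at room temperature, scaled to free-ligand and complex controls.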", "values": [
      {"smiles": "CCOc1ccccc1C(=O)N[C@H](C(=O)OCc1cc(=O)oc2cc(C)ccc12)C(C)C", "Potency": "inconclusive: 28.2 µM [inhibitor, single point]"},
      {"smiles": "CC(=O)c1ccc(NCC(=O)N2CCN(c3ccccc3)CC2)cc1", "Potency": "inconclusive: 50.1 µM [inhibitor, single point]"},
      {"smiles": "O=C(N/N=C(\\c1ccccc1)c1cccnc1)C(O)(c1ccccc1)c1ccccc1", "activity change, negative = displacement": "inactive: -17.2%"},
      {"smiles": "Cc1ccc(-c2noc(CSc3nnc(-c4ccncc4)n3-c3ccc(C)cc3)n2)cc1", "Potency": "inconclusive: 39.8 µM [inhibitor, partial curve]"},
      {"smiles": "COc1ccc(N2C(=O)C(Cl)=C(N(CCO)Cc3ccccc3)C2=O)cc1", "Potency": "inconclusive: 31.6 µM [inhibitor, partial curve]"},
      {"smiles": "O=C1/C(=C/c2cccs2)SC(=S)N1CCC(=O)N1CCCCC1CCO", "note": "(stereo not drawn)", "Potency": "inconclusive: 31.6 µM [inhibitor, partial curve]"},
      {"smiles": "COc1cccc(/C(N)=N/OC(=O)Cc2ccccc2[N+](=O)[O-])c1", "Potency": "inconclusive: 31.6 µM [inhibitor, partial curve]"},
      {"smiles": "O=C(COC(=O)c1cccc(Oc2ccccc2)c1)NCc1ccco1", "Potency": "inconclusive: 35.5 µM [inhibitor, partial curve]"},
      {"smiles": "O=C1C(Cl)=C(N2CCOCC2)C(=O)N1c1ccccc1Cl", "Potency": "inconclusive: 14.1 µM [inhibitor, partial curve]"},
      {"smiles": "Cc1ccc(C(=O)c2cn(Cc3ccccc3)c3nc(C)ccc3c2=O)cc1", "Potency": "inconclusive: 25.1 µM [inhibitor, partial curve]"},
      {"smiles": "Cn1c(Sc2ccc([N+](=O)[O-])cc2C(F)(F)F)nnc1-c1ccccc1", "Potency": "inconclusive: 28.2 µM [inhibitor, partial curve]"},
      {"smiles": "CCN(Cc1ccncc1)Cc1c(O)ccc2cc(Br)ccc12", "Potency": "inconclusive: 25.1 µM [inhibitor, partial curve]"},
      {"smiles": "CCCCCCC(=O)N(O)C1CC(=O)N(Cc2ccccc2)C1=O", "note": "(stereo not drawn)", "Potency": "inconclusive: 39.8 µM [inhibitor, single point]"},
      {"smiles": "Nc1c(C(=O)Nc2ccccc2)sc2nc3c(cc12)CN(Cc1ccccc1)CC3", "activity change, negative = displacement": "inactive: 2.25%"},
      {"smiles": "O=C(N=NC(=O)c1ccc2c(O)n(C3CCCCC3)c(O)c2c1)c1cccnc1", "Potency": "inconclusive: 14.1 µM [inhibitor, partial curve]"},
      {"smiles": "Cc1c(N/C(=N/S(=O)(=O)c2cc([N+](=O)[O-])ccc2Cl)c2ccccc2)c(=O)n(-c2ccccc2)n1C", "activity change, negative = displacement": "inactive: -9.92%"},
      {"smiles": "COc1ccc2[nH]c3c(=O)n(Cc4ccc(C(=O)N5CCCCCC5)cc4)c(=S)[nH]c3c2c1", "activity change, negative = displacement": "inactive: -13.7%"},
      {"smiles": "Cc1ccc(Sc2c(CO)c(-c3ccccc3)nn2C)cc1", "Potency": "inconclusive: 11.2 µM [inhibitor, partial curve]"}
    ]}
  ]
}
